# Data reported in the supplement of paper PMC8728848.
# The other results are listed elsewhere or left out.
# Columns and labels:
# Test in all cases: glycan array binding signal (z-score within array); higher = stronger binding
# Details in all cases: glycan notation: IUPAC condensed, linker removed
# Neu5Ac(a2-3)GalNAc = target: Neu5Ac(a2-3)GalNAc
# Procedure, shortened: (§1)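 The binding signal is a Z-score computed within each array. Data were drawn from 3228 arrays in the Consortium for Functional Glycomics database, restricted to those with a known protein sequence. Scores were averaged over arrays of the same protein sequence at different concentrations or buffers, and over linkers, and negative values can be taken as non-binding.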
# [1] = target: Neu5Ac(a2-3)GalNAc(b1-4)GlcNAc
# Procedure, shortened: as §1
# [2] = target: Neu5Ac(a2-3)[GalNAc(b1-4)]Gal(b1-4)Glc
# Procedure, shortened: as §1
# [3] = target: Neu5Ac(a2-3)[GalNAc(b1-4)]Gal(b1-4)GlcNAc
# Procedure, shortened: as §1
# [4] = target: Neu5Ac(a2-3)[GalNAc(b1-4)]Gal(b1-4)GlcNAc(b1-3)GalNAc
# Procedure, shortened: as §1
# [5] = target: Neu5Ac(a2-3)[Neu5Ac(a2-6)]GalNAc
# Procedure, shortened: as §1
# Neu5Ac(a2-6)Gal = target: Neu5Ac(a2-6)Gal
# Procedure, shortened: as §1
# [6] = target: Neu5Ac(a2-6)Gal(b1-3)GlcNAc(b1-3)[Gal(b1-4)GlcNAc(b1-6)]Gal(b1-4)Glc
# Procedure, shortened: as §1
# Neu5Ac(a2-6)Gal(b1-4)Glc = target: Neu5Ac(a2-6)Gal(b1-4)Glc
# Procedure, shortened: as §1
# [7] = target: Neu5Ac(a2-6)Gal(b1-4)GlcNAc
# Procedure, shortened: as §1
# [8] = target: Neu5Ac(a2-6)Gal(b1-4)GlcNAc(b1-2)Man
# Procedure, shortened: as §1
# [9] = target: Neu5Ac(a2-6)Gal(b1-4)GlcNAc(b1-2)Man(a1-3)Man(b1-4)GlcNAc(b1-4)GlcNAc
# Procedure, shortened: as §1
# [10] = target: Neu5Ac(a2-6)Gal(b1-4)GlcNAc(b1-2)Man(a1-3)[Gal(b1-4)GlcNAc(b1-2)Man(a1-6)]Man(b1-4)GlcNAc(b1-4)GlcNAc
# Procedure, shortened: as §1
# [11] = target: Neu5Ac(a2-6)Gal(b1-4)GlcNAc(b1-2)Man(a1-3)[GlcNAc(b1-2)Man(a1-6)]Man(b1-4)GlcNAc(b1-4)GlcNAc
# Procedure, shortened: as §1
# [12] = target: Neu5Ac(a2-6)Gal(b1-4)GlcNAc(b1-2)Man(a1-3)[GlcNAc(b1-4)][Neu5Ac(a2-6)Gal(b1-4)GlcNAc(b1-2)Man(a1-6)]Man(b1-4)GlcNAc(b1-4)GlcNAc
# Procedure, shortened: as §1
# [13] = target: Neu5Ac(a2-6)Gal(b1-4)GlcNAc(b1-2)Man(a1-3)[Man(a1-6)]Man(b1-4)GlcNAc(b1-4)GlcNAc
# Procedure, shortened: as §1
# [14] = target: Neu5Ac(a2-6)Gal(b1-4)GlcNAc(b1-2)Man(a1-3)[Neu5Ac(a2-3)Gal(b1-4)GlcNAc(b1-2)Man(a1-6)]Man(b1-4)GlcNAc(b1-4)GlcNAc
# Procedure, shortened: as §1
# [15] = target: Neu5Ac(a2-6)Gal(b1-4)GlcNAc(b1-2)Man(a1-3)[Neu5Ac(a2-6)Gal(b1-4)GlcNAc(b1-2)Man(a1-6)]Man(b1-4)GlcNAc(b1-4)GlcNAc
# Procedure, shortened: as §1
# [16] = target: Neu5Ac(a2-6)Gal(b1-4)GlcNAc(b1-2)Man(a1-3)[Neu5Ac(a2-6)Gal(b1-4)GlcNAc(b1-2)Man(a1-6)]Man(b1-4)GlcNAc(b1-4)[Fuc(a1-6)]GlcNAc
# Procedure, shortened: as §1
# [17] = target: Neu5Ac(a2-6)Gal(b1-4)GlcNAc(b1-2)Man(a1-6)Man(b1-4)GlcNAc(b1-4)GlcNAc
# Procedure, shortened: as §1
# [18] = target: Neu5Ac(a2-6)Gal(b1-4)GlcNAc(b1-2)Man(a1-6)[Gal(b1-4)GlcNAc(b1-2)Man(a1-3)]Man(b1-4)GlcNAc(b1-4)GlcNAc
# Procedure, shortened: as §1
# [19] = target: Neu5Ac(a2-6)Gal(b1-4)GlcNAc(b1-2)Man(a1-6)[GlcNAc(b1-2)Man(a1-3)]Man(b1-4)GlcNAc(b1-4)GlcNAc
# Procedure, shortened: as §1
# [20] = target: Neu5Ac(a2-6)Gal(b1-4)GlcNAc(b1-2)Man(a1-6)[Man(a1-3)]Man(b1-4)GlcNAc(b1-4)GlcNAc
# Procedure, shortened: as §1
# [21] = target: Neu5Ac(a2-6)Gal(b1-4)GlcNAc(b1-2)[Neu5Ac(a2-6)Gal(b1-4)GlcNAc(b1-4)]Man(a1-3)[GlcNAc(b1-4)][Neu5Ac(a2-6)Gal(b1-4)GlcNAc(b1-2)[Neu5Ac(a2-6)Gal(b1-4)GlcNAc(b1-6)]Man(a1-6)]Man(b1-4)GlcNAc(b1-4)GlcNAc
# Procedure, shortened: as §1
# [22] = target: Neu5Ac(a2-6)Gal(b1-4)GlcNAc(b1-2)[Neu5Ac(a2-6)Gal(b1-4)GlcNAc(b1-4)]Man(a1-3)[GlcNAc(b1-4)][Neu5Ac(a2-6)Gal(b1-4)GlcNAc(b1-4)Man(a1-6)]Man(b1-4)GlcNAc(b1-4)GlcNAc
# Procedure, shortened: as §1
# [23] = target: Neu5Ac(a2-6)Gal(b1-4)GlcNAc(b1-2)[Neu5Ac(a2-6)Gal(b1-4)GlcNAc(b1-6)]Man(a1-6)[Neu5Ac(a2-6)Gal(b1-4)GlcNAc(b1-2)Man(a1-3)][GlcNAc(b1-4)]Man(b1-4)GlcNAc(b1-4)GlcNAc
# Procedure, shortened: as §1
# [24] = target: Neu5Ac(a2-6)Gal(b1-4)GlcNAc(b1-3)Gal(b1-3)GlcNAc
# Procedure, shortened: as §1
# [25] = target: Neu5Ac(a2-6)Gal(b1-4)GlcNAc(b1-3)Gal(b1-4)GlcNAc
# Procedure, shortened: as §1
# [26] = target: Neu5Ac(a2-6)Gal(b1-4)GlcNAc(b1-3)Gal(b1-4)GlcNAc(b1-2)Man(a1-3)[Neu5Ac(a2-6)Gal(b1-4)GlcNAc(b1-3)Gal(b1-4)GlcNAc(b1-2)Man(a1-6)]GalNAc
# Procedure, shortened: as §1
# [27] = target: Neu5Ac(a2-6)Gal(b1-4)GlcNAc(b1-3)Gal(b1-4)GlcNAc(b1-3)Gal(b1-4)GlcNAc
# Procedure, shortened: as §1
# [28] = target: Neu5Ac(a2-6)Gal(b1-4)GlcNAc(b1-3)Gal(b1-4)GlcNAc(b1-3)Gal(b1-4)GlcNAc(b1-2)Man(a1-3)[Neu5Ac(a2-6)Gal(b1-4)GlcNAc(b1-3)Gal(b1-4)GlcNAc(b1-3)Gal(b1-4)GlcNAc(b1-2)Man(a1-6)]GalNAc
# Procedure, shortened: as §1
# [29] = target: Neu5Ac(a2-6)Gal(b1-4)GlcNAc(b1-3)Gal(b1-4)GlcNAc(b1-3)GalNAc
# Procedure, shortened: as §1
# [30] = target: Neu5Ac(a2-6)Gal(b1-4)GlcNAc(b1-3)Gal(b1-4)GlcNAc(b1-3)[Neu5Ac(a2-6)Gal(b1-4)GlcNAc(b1-3)Gal(b1-4)GlcNAc(b1-6)]GalNAc
# Procedure, shortened: as §1
# [31] = target: Neu5Ac(a2-6)Gal(b1-4)GlcNAc(b1-3)Gal(b1-4)GlcNAc(b1-6)[Gal(b1-3)]GalNAc
# Procedure, shortened: as §1
# [32] = target: Neu5Ac(a2-6)Gal(b1-4)GlcNAc(b1-3)Gal(b1-4)[Fuc(a1-3)]GlcNAc(b1-3)Gal(b1-4)[Fuc(a1-3)]GlcNAc
# Procedure, shortened: as §1
# [33] = target: Neu5Ac(a2-6)Gal(b1-4)GlcNAc(b1-3)GalNAc
# Procedure, shortened: as §1
# [34] = target: Neu5Ac(a2-6)Gal(b1-4)GlcNAc(b1-3)[Neu5Ac(a2-6)Gal(b1-4)GlcNAc(b1-6)]GalNAc
# Procedure, shortened: as §1
binder,measurement,setting,value
SP15308A-bot-339-19-339 (Bacteroides ovatus) (protein) ACNNEWEDEQYEQYISFKSPIPAGGEGVTDIYVRYKEDGKVTYRLPIVVSGSTTNTLDREVHIAVDKDTLETLNIERFSIHRPGLWYTALEEDKYDFPKTVHISAGSSVEQLNIDFNLQGIDMLEKWVLPLTIVDDPSYNYKSHPRKNYAKALLRVIPFNNYSGSYTSSAMKVYTYINGKPDTNARTANKRTGYVINDNTVFFYAGLISEDLDKEVREKYKINVHFNEDGTLHMEQGDPTNKMKFELIGTPTYSKTSVMDATRPYLERRYVQIMFEYDFEDFSYGGNGVDVIPIKYKVEGSMTLQRNINTQIPDEDQQIEW,glycan array binding signal (z-score),Neu5Ac(a2-3)GalNAc,0.234
same,glycan array binding signal (z-score),[1],-0.166
same,glycan array binding signal (z-score),[2],-0.539
same,glycan array binding signal (z-score),[3],0.103
same,glycan array binding signal (z-score),[4],-0.482
same,glycan array binding signal (z-score),[5],0.465
same,glycan array binding signal (z-score),Neu5Ac(a2-6)Gal,0.1
same,glycan array binding signal (z-score),[6],-0.503
same,glycan array binding signal (z-score),Neu5Ac(a2-6)Gal(b1-4)Glc,-0.226
same,glycan array binding signal (z-score),[7],0.493
same,glycan array binding signal (z-score),[8],-0.623
same,glycan array binding signal (z-score),[9],-0.385
same,glycan array binding signal (z-score),[10],-0.154
same,glycan array binding signal (z-score),[11],-0.135
same,glycan array binding signal (z-score),[12],-0.08
same,glycan array binding signal (z-score),[13],-0.362
same,glycan array binding signal (z-score),[14],-0.229
same,glycan array binding signal (z-score),[15],-0.265
same,glycan array binding signal (z-score),[16],0.106
same,glycan array binding signal (z-score),[17],-0.067
same,glycan array binding signal (z-score),[18],-0.141
same,glycan array binding signal (z-score),[19],-0.499
same,glycan array binding signal (z-score),[20],0.202
same,glycan array binding signal (z-score),[21],0.739
same,glycan array binding signal (z-score),[22],-0.509
same,glycan array binding signal (z-score),[23],-0.263
same,glycan array binding signal (z-score),[24],0.259
same,glycan array binding signal (z-score),[25],-0.68
same,glycan array binding signal (z-score),[26],0.228
same,glycan array binding signal (z-score),[27],-0.319
same,glycan array binding signal (z-score),[28],-0.157
same,glycan array binding signal (z-score),[29],-0.372
same,glycan array binding signal (z-score),[30],-0.295
same,glycan array binding signal (z-score),[31],-0.196
same,glycan array binding signal (z-score),[32],0.107
same,glycan array binding signal (z-score),[33],-0.619
same,glycan array binding signal (z-score),[34],-0.18
